Experiment [1] concerns the target T1, Smc3^QQ W483R R1008I S72C (S. cerevisiae) (UniProt P47037).
T1 sequence: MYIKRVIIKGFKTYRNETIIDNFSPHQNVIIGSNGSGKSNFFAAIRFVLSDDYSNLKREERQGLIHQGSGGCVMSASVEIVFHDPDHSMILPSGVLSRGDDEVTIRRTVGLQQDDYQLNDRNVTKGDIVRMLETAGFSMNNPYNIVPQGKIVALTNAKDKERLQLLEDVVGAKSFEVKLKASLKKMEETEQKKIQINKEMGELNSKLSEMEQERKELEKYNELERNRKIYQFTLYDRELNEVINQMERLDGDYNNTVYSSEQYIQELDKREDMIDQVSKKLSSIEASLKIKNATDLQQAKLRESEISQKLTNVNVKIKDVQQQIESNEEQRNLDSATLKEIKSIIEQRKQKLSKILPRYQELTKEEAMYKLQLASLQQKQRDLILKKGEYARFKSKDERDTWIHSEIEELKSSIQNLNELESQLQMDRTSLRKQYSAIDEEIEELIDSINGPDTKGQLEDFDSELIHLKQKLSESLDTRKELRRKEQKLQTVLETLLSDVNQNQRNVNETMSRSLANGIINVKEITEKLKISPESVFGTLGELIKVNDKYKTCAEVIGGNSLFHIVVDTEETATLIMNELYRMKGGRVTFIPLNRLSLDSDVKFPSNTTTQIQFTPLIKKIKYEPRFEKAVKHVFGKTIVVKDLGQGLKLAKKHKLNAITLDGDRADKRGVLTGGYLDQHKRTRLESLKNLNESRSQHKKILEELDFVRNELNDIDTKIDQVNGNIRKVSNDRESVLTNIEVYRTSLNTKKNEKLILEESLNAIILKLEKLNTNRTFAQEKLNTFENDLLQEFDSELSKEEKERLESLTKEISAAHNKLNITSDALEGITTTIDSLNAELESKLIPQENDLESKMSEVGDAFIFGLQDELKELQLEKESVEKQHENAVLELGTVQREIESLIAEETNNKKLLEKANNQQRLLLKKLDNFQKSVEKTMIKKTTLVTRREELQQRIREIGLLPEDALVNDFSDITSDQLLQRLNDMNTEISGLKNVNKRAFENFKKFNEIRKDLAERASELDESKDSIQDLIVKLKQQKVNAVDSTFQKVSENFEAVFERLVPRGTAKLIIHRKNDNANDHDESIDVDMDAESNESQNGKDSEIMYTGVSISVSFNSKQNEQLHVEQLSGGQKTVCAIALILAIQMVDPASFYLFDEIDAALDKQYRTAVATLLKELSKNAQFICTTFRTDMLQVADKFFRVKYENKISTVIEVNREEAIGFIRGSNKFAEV
In words: cross-linking; in vivo BMOE cross-link of cysteine pairs in yeast cells arrested in late G1 by non-degradable Sic1(9m); Scc1-PK immunoprecipitated, western blot, band intensities quantified. A general note: Immunoblotting shows a protein as a band on a membrane.

Experiment [2] has as its target T2, Smc1 E1102C (S. cerevisiae) (UniProt P32908).
T2 sequence: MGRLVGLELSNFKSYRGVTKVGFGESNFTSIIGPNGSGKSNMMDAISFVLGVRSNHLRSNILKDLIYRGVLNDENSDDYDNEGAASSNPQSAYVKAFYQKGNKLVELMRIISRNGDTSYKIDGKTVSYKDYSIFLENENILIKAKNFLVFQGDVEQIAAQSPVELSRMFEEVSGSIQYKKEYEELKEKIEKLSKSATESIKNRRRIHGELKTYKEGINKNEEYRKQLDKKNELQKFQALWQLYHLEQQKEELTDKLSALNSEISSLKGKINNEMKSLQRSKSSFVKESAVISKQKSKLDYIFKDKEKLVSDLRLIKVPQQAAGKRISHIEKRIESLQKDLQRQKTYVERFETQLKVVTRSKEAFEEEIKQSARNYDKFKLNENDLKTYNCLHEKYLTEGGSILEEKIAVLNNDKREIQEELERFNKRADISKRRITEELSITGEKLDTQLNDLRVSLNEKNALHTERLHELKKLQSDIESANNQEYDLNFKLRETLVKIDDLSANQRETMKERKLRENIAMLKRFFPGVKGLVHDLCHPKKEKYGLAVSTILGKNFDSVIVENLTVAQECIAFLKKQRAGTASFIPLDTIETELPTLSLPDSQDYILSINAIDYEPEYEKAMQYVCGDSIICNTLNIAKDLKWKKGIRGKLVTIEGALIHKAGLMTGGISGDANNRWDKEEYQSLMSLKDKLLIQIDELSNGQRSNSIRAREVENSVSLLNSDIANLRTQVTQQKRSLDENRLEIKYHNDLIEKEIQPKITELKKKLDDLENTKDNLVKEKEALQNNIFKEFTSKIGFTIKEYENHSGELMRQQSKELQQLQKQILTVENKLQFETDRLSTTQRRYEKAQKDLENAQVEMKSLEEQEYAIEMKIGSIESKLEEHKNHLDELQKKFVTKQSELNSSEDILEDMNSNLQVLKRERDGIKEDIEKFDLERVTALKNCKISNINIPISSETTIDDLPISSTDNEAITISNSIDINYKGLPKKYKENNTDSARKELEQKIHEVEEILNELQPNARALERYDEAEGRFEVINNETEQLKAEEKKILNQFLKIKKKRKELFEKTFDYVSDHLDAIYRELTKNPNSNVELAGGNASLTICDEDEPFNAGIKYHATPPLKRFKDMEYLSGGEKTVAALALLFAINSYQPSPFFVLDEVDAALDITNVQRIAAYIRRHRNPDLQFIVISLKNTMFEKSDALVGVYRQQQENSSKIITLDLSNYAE
As to the kind of experiment: cross-linking; in vivo BMOE cross-link in late G1 arrested cells with ectopic Smc3-PK or Smc3^QQ-PK; anti-PK immunoprecipitation, blots with anti-MYC (Smc1) and anti-FLAG (Scc2).

The target of experiment [3] is T2, Smc1 E1102C (S. cerevisiae). As to the kind of experiment: cross-linking; in vivo BMOE cross-link of cysteine pairs in yeast cells arrested in late G1 by non-degradable Sic1(9m); Scc1-PK immunoprecipitated, western blot, band intensities quantified.

These are yes or no findings as the source states them, for the method shown. In cells and extracts the contact can be indirect. Some binding calls cover weakened binding; strength is not graded here.

B1: Scc2 E819C (natural protein, S. cerevisiae, UniProt Q04002 1-1493, looked up)
chain: MSYPGKDKNIPGRIIEALEDLPLSYLVPKDGLAALVNAPMRVSLPFDKTIFTSADDGRDVNINVLGTANSTTSSIKNEAEKERLVFKRPSNFTSSANSVDYVPTNFLEGLSPLAQSVLSTHKGLNDSINIEKKSEIVSRPEAKHKLESVTSNAGNLSFNDNSSNKKTKTSTGVTMTQANLAEQYLNDLKNILDIVGFDQNSAEIGNIEYWLQLPNKKFVLTTNCLTKLQMTIKNITDNPQLSNSIEITWLLRLLDVMVCNIKFSKSSLKMGLDDSMLRYIALLSTIVLFNIFLLGKNDSNLHRESYIMEPVNFLSDLIESLKILTIEYGSLKIEFDTFQEALELLPKYIRNGPFLDDNVTAKLVYIFSDLLMNNDIEATTNIQFQSFWDNVKRISSDILVSLFGSFDQQRGFIIEELLSHIEKLPTKRIQKKLRKVGNQNIYITDFTFTLMSMLENINCYSFCNQMKDIAPENIDLLKNEYKKQEEFLFNIVEHINDTILERFFKNPSALRYVIDNFVQDLLLLISSPQWPVTEKILSSLLKRLLSVYSPSMQVSANIETICLQLIGNIGSTIFDIKCSTRDHEDNNLIKMINYPETLPHFFKSFEECIAYNETIKCRRSATRFLWNLRLGTILILEEYTKDAKEQIITVDNELKKILEQIKDGGLGPELENREADFSTIKLDYFSILHAFELLNLYDPYLKLILSLLAKDKIKLRSTAIKCLSMLASKDKVILSNPMVKETIHRRLNDSSASVKDAILDLVSINSSYFEFYQQINNNYNDDSIMVRKHVLRINEKMYDETNDIVTKVYVIARILMKICDEEDNIIDMARLILLNRWILKVHEVLDQPEKLKEISSSVLLVMSRVAIMNEKCSQLFDLFLNFYLLNKEAHSKEAYDKITHVLTILTDFLVQKIVELNSDDTNEKNSIVDKQNFLNLLAKFADSTVSFLTKDHITALYPYMVSDEKSDFHYYILQVFRCTFEKLANFKQKFLYDLETTLLSRLPKMNVREIDEAMPLIWSVATHRHDTARVAKACSSCLSHLHPYINKANNEEAAIVVDGKLQRLIYLSTGFARFCFPKPSNDKIAFLQEGETLYEHITKCLLVLSKDKITHVIRRVAVKNLTKLCGNHPKLFNSRHVLHLLDKEFQSDQLDIKLVILESLYDLFLLEERKSVRNTGVNSTLSSNSILKKKLLKTNRVEFANDGVCSALATRFLDNILQLCLLRDLKNSLVAIRLLKLILKFGYTNPSHSIPTVIALFASTSQYIRHVAYELLEDLFEKYETLVFSSLSRGVTKAIHYSIHTDEKYYYKHDHFLSLLEKLCGTGKKNGPKFFKVLKRIMQSYLDDITDLTSTNSSVQKSIFVLCTNISNITFVSQYDLVSLLKTIDLTTDRLKEVIMDEIGDNVSSLSVSEEKLSGIILIQLSLQDLGTYLLHLYGLRDDVLLLDIVEESELKNKQLPAKKPDISKFSAQLENIEQYSSNGKLLTYFRKHVKDT
notes: Scc2, S. cerevisiae; source: S. cerevisiae W303, in vivo, whole-cell extract
As for B1, the binding entry in experiment [1] is reported as “binds”.

B2: Scc2 T1281C (protein, UniProt Q04002 1-1493)
chain: MSYPGKDKNIPGRIIEALEDLPLSYLVPKDGLAALVNAPMRVSLPFDKTIFTSADDGRDVNINVLGTANSTTSSIKNEAEKERLVFKRPSNFTSSANSVDYVPTNFLEGLSPLAQSVLSTHKGLNDSINIEKKSEIVSRPEAKHKLESVTSNAGNLSFNDNSSNKKTKTSTGVTMTQANLAEQYLNDLKNILDIVGFDQNSAEIGNIEYWLQLPNKKFVLTTNCLTKLQMTIKNITDNPQLSNSIEITWLLRLLDVMVCNIKFSKSSLKMGLDDSMLRYIALLSTIVLFNIFLLGKNDSNLHRESYIMEPVNFLSDLIESLKILTIEYGSLKIEFDTFQEALELLPKYIRNGPFLDDNVTAKLVYIFSDLLMNNDIEATTNIQFQSFWDNVKRISSDILVSLFGSFDQQRGFIIEELLSHIEKLPTKRIQKKLRKVGNQNIYITDFTFTLMSMLENINCYSFCNQMKDIAPENIDLLKNEYKKQEEFLFNIVEHINDTILERFFKNPSALRYVIDNFVQDLLLLISSPQWPVTEKILSSLLKRLLSVYSPSMQVSANIETICLQLIGNIGSTIFDIKCSTRDHEDNNLIKMINYPETLPHFFKSFEECIAYNETIKCRRSATRFLWNLRLGTILILEEYTKDAKEQIITVDNELKKILEQIKDGGLGPELENREADFSTIKLDYFSILHAFELLNLYDPYLKLILSLLAKDKIKLRSTAIKCLSMLASKDKVILSNPMVKETIHRRLNDSSASVKDAILDLVSINSSYFEFYQQINNNYNDDSIMVRKHVLRINEKMYDETNDIVTKVYVIARILMKIEDEEDNIIDMARLILLNRWILKVHEVLDQPEKLKEISSSVLLVMSRVAIMNEKCSQLFDLFLNFYLLNKEAHSKEAYDKITHVLTILTDFLVQKIVELNSDDTNEKNSIVDKQNFLNLLAKFADSTVSFLTKDHITALYPYMVSDEKSDFHYYILQVFRCTFEKLANFKQKFLYDLETTLLSRLPKMNVREIDEAMPLIWSVATHRHDTARVAKACSSCLSHLHPYINKANNEEAAIVVDGKLQRLIYLSTGFARFCFPKPSNDKIAFLQEGETLYEHITKCLLVLSKDKITHVIRRVAVKNLTKLCGNHPKLFNSRHVLHLLDKEFQSDQLDIKLVILESLYDLFLLEERKSVRNTGVNSTLSSNSILKKKLLKTNRVEFANDGVCSALATRFLDNILQLCLLRDLKNSLVAIRLLKLILKFGYTNPSHSIPTVIALFASTSQYIRHVAYELLEDLFEKYECLVFSSLSRGVTKAIHYSIHTDEKYYYKHDHFLSLLEKLCGTGKKNGPKFFKVLKRIMQSYLDDITDLTSTNSSVQKSIFVLCTNISNITFVSQYDLVSLLKTIDLTTDRLKEVIMDEIGDNVSSLSVSEEKLSGIILIQLSLQDLGTYLLHLYGLRDDVLLLDIVEESELKNKQLPAKKPDISKFSAQLENIEQYSSNGKLLTYFRKHVKDT
With B2, the binding result in experiment [2] and in experiment [3] was “binds” in each case.
